Assay results from the supplement of paper PMC8728848.
Some of the results follow.

What was measured:
Assay in all cases: glycan array binding signal (z-score within array); higher = stronger binding
Conditions in all cases: glycan notation: IUPAC condensed, linker removed
Kdn(a2-3)Gal(b1-4)Glc = biological target: Kdn(a2-3)Gal(b1-4)Glc
Procedure, shortened: (§1)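 Glycan array binding is given as a within-array Z-score, which can be read as non-binding when negative. The arrays, 3228 of them, came from the Consortium for Functional Glycomics database and were retained only where the protein sequence was available. Z-scores were averaged across arrays of the same protein sequence at different concentrations or buffers and across linkers.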

Kdn(a2-3)Gal(b1-4)GlcNAc = biological target: Kdn(a2-3)Gal(b1-4)GlcNAc
Procedure, shortened: as §1

[1] = biological target: Kdn(a2-3)Gal(b1-4)[Fuc(a1-3)]GlcNAc
Procedure, shortened: as §1

Kdn(a2-6)Gal(b1-4)GlcNAc = biological target: Kdn(a2-6)Gal(b1-4)GlcNAc
Procedure, shortened: as §1

[2] = biological target: Man(a1-2)Man(a1-2)Man(a1-3)Man
Procedure, shortened: as §1

[3] = biological target: Man(a1-2)Man(a1-2)Man(a1-6)[Man(a1-3)]Man
Procedure, shortened: as §1

Man(a1-2)Man(a1-3)Man = biological target: Man(a1-2)Man(a1-3)Man
Procedure, shortened: as §1

[4] = biological target: Man(a1-2)Man(a1-3)[Man(a1-2)Man(a1-6)]Man
Procedure, shortened: as §1

[5] = biological target: Man(a1-2)Man(a1-3)[Man(a1-2)Man(a1-6)]Man(a1-6)[Man(a1-2)Man(a1-2)Man(a1-3)]Man
Procedure, shortened: as §1

[6] = biological target: Man(a1-2)Man(a1-3)[Man(a1-2)Man(a1-6)]Man(a1-6)[Man(a1-2)Man(a1-2)Man(a1-3)]Man(b1-4)GlcNAc(b1-4)GlcNAc
Procedure, shortened: as §1

[7] = biological target: Man(a1-2)Man(a1-3)[Man(a1-6)]Man(a1-6)[Man(a1-2)Man(a1-3)]Man(b1-4)GlcNAc(b1-4)GlcNAc
Procedure, shortened: as §1

[8] = biological target: Man(a1-2)Man(a1-6)[Man(a1-3)]Man(a1-6)[Man(a1-2)Man(a1-2)Man(a1-3)]Man
Procedure, shortened: as §1

[9] = biological target: Man(a1-2)Man(a1-6)[Man(a1-3)]Man(a1-6)[Man(a1-2)Man(a1-2)Man(a1-3)]Man(b1-4)GlcNAc(b1-4)GlcNAc
Procedure, shortened: as §1

Man(a1-3)[Man(a1-6)]Man = biological target: Man(a1-3)[Man(a1-6)]Man
Procedure, shortened: as §1

[10] = biological target: Man(a1-3)[Man(a1-6)]Man(a1-6)[Man(a1-2)Man(a1-3)]Man(b1-4)GlcNAc(b1-4)GlcNAc
Procedure, shortened: as §1

[11] = biological target: Man(a1-3)[Man(a1-6)]Man(a1-6)[Man(a1-3)]Man
Procedure, shortened: as §1

[12] = biological target: Man(a1-3)[Man(a1-6)]Man(a1-6)[Man(a1-3)]Man(b1-4)GlcNAc(b1-4)GlcNAc
Procedure, shortened: as §1

[13] = biological target: Man(a1-3)[Man(a1-6)]Man(b1-4)GlcNAc(b1-4)GlcNAc
Procedure, shortened: as §1

[14] = biological target: Man(a1-3)[Man(a1-6)]Man(b1-4)GlcNAc(b1-4)[Fuc(a1-6)]GlcNAc
Procedure, shortened: as §1

Man(a1-6)Man = biological target: Man(a1-6)Man
Procedure, shortened: as §1

Man(b1-4)GlcNAc = biological target: Man(b1-4)GlcNAc
Procedure, shortened: as §1

MurNAc(b1-4)GlcNAc = biological target: MurNAc(b1-4)GlcNAc
Procedure, shortened: as §1

Neu5Ac(a2-3)Gal = biological target: Neu5Ac(a2-3)Gal
Procedure, shortened: as §1

[15] = biological target: Neu5Ac(a2-3)Gal(b1-3)GalNAc
Procedure, shortened: as §1

[16] = biological target: Neu5Ac(a2-3)Gal(b1-3)GalNAc(b1-3)Gal(a1-4)Gal(b1-4)Glc
Procedure, shortened: as §1

[17] = biological target: Neu5Ac(a2-3)Gal(b1-3)GalNAc(b1-4)[Neu5Ac(a2-3)]Gal(b1-4)Glc
Procedure, shortened: as §1

[18] = biological target: Neu5Ac(a2-3)Gal(b1-3)GalNAc(b1-4)[Neu5Ac(a2-8)Neu5Ac(a2-3)]Gal(b1-4)Glc
Procedure, shortened: as §1

[19] = biological target: Neu5Ac(a2-3)Gal(b1-3)GalNAc6S
Procedure, shortened: as §1

[20] = biological target: Neu5Ac(a2-3)Gal(b1-3)GlcNAc
Procedure, shortened: as §1

[21] = biological target: Neu5Ac(a2-3)Gal(b1-3)GlcNAc(b1-2)Man
Procedure, shortened: as §1

[22] = biological target: Neu5Ac(a2-3)Gal(b1-3)GlcNAc(b1-2)Man(a1-3)[GlcNAc(b1-4)][Neu5Ac(a2-3)Gal(b1-3)GlcNAc(b1-2)Man(a1-6)]Man(b1-4)GlcNAc(b1-4)GlcNAc
Procedure, shortened: as §1

[23] = biological target: Neu5Ac(a2-3)Gal(b1-3)GlcNAc(b1-2)Man(a1-3)[Neu5Ac(a2-3)Gal(b1-3)GlcNAc(b1-2)Man(a1-6)]Man(b1-4)GlcNAc(b1-4)GlcNAc
Procedure, shortened: as §1

[24] = biological target: Neu5Ac(a2-3)Gal(b1-3)GlcNAc(b1-3)Gal(b1-3)GlcNAc
Procedure, shortened: as §1

[25] = biological target: Neu5Ac(a2-3)Gal(b1-3)GlcNAc(b1-3)Gal(b1-4)GlcNAc
Procedure, shortened: as §1

[26] = biological target: Neu5Ac(a2-3)Gal(b1-3)GlcNAc(b1-3)GalNAc
Procedure, shortened: as §1

[27] = biological target: Neu5Ac(a2-3)Gal(b1-3)GlcNAc(b1-4)Gal(b1-4)Glc
Procedure, shortened: as §1

[28] = biological target: Neu5Ac(a2-3)Gal(b1-3)GlcNAc(b1-6)GalNAc
Procedure, shortened: as §1

[29] = biological target: Neu5Ac(a2-3)Gal(b1-3)GlcNAc6S
Procedure, shortened: as §1

B1: Cohesin-mDCIR (Macaca mulatta) (protein)
chain: GLDDLDAVRIKVDTVNAKPGDTVRIPVRFSGIPSKGIANCDFVYSYDPNVLEIIEIEPGDIIVDPNPDKSFDTAVYPDRKIIVFLFAEDSGTGAYAITKDGVFATIVAKVKEGAPNGLSVIKFVEVGGFANNDLVEQKTQFFDGGVNVGDTTEPATPTTPVTTPTTTDDLDAASFQKYSQLLEKMTTKDLVHTTLECVKKNMTTEETAWSCCPKNWKPFSSNCYFISTESASWQKSEKDCARMEAHLLVINTREEQDFIFQNLQEESAYFVGLSDPEGQRHWQWVDRTPYNESSTFWHPHEPSDPDERCVVLNFRKTPKRWGWNDVHCIVHQRSVCEMMKIHLHHHHHH
Q: Which “glycan array binding signal (z-score)” value (Kdn(a2-3)Gal(b1-4)Glc) does the source give for B1 here?
A: -0.454

Q: And the “glycan array binding signal (z-score)” value (Kdn(a2-3)Gal(b1-4)GlcNAc)?
A: -0.393

Q: And the “glycan array binding signal (z-score)” value [1]?
A: -0.343

Q: And the “glycan array binding signal (z-score)” value (Kdn(a2-6)Gal(b1-4)GlcNAc)?
A: -0.464

Q: And the “glycan array binding signal (z-score)” value [2]?
A: -0.156

Q: And the “glycan array binding signal (z-score)” value [3]?
A: -0.45

Q: And the “glycan array binding signal (z-score)” value (Man(a1-2)Man(a1-3)Man)?
A: -0.352

Q: What about the “glycan array binding signal (z-score)” value [4] of the same binder?
A: -0.268

Q: And the “glycan array binding signal (z-score)” value [5]?
A: -0.438

Q: What about the “glycan array binding signal (z-score)” value [6] of the same binder?
A: -0.412

Q: What about the “glycan array binding signal (z-score)” value [7] of the same binder?
A: -0.288

Q: And the “glycan array binding signal (z-score)” value [8]?
A: -0.216

Q: What about the “glycan array binding signal (z-score)” value [9] of the same binder?
A: -0.443

Q: And the “glycan array binding signal (z-score)” value (Man(a1-3)[Man(a1-6)]Man)?
A: -0.342

Q: What about the “glycan array binding signal (z-score)” value [10] of the same binder?
A: -0.416

Q: And the “glycan array binding signal (z-score)” value [11]?
A: -0.39

Q: And the “glycan array binding signal (z-score)” value [12]?
A: -0.439

Q: What about the “glycan array binding signal (z-score)” value [13] of the same binder?
A: -0.133

Q: What about the “glycan array binding signal (z-score)” value [14] of the same binder?
A: 0.271

Q: What about the “glycan array binding signal (z-score)” value (Man(a1-6)Man) of the same binder?
A: 0.943

Q: What about the “glycan array binding signal (z-score)” value (Man(b1-4)GlcNAc) of the same binder?
A: -0.42

Q: What about the “glycan array binding signal (z-score)” value (MurNAc(b1-4)GlcNAc) of the same binder?
A: -0.469

Q: What about the “glycan array binding signal (z-score)” value (Neu5Ac(a2-3)Gal) of the same binder?
A: -0.068

Q: What about the “glycan array binding signal (z-score)” value [15] of the same binder?
A: -0.417

Q: And the “glycan array binding signal (z-score)” value [16]?
A: -0.388

Q: What about the “glycan array binding signal (z-score)” value [17] of the same binder?
A: -0.165

Q: What about the “glycan array binding signal (z-score)” value [18] of the same binder?
A: -0.441

Q: What about the “glycan array binding signal (z-score)” value [19] of the same binder?
A: 2.17

Q: What about the “glycan array binding signal (z-score)” value [20] of the same binder?
A: -0.412

Q: And the “glycan array binding signal (z-score)” value [21]?
A: -0.283

Q: And the “glycan array binding signal (z-score)” value [22]?
A: -0.247

Q: And the “glycan array binding signal (z-score)” value [23]?
A: 0.142

Q: And the “glycan array binding signal (z-score)” value [24]?
A: -0.423

Q: What about the “glycan array binding signal (z-score)” value [25] of the same binder?
A: -0.413

Q: And the “glycan array binding signal (z-score)” value [26]?
A: -0.379

Q: And the “glycan array binding signal (z-score)” value [27]?
A: -0.419

Q: What about the “glycan array binding signal (z-score)” value [28] of the same binder?
A: 0.849

Q: And the “glycan array binding signal (z-score)” value [29]?
A: -0.08
